# Data as given in article PMC6919601, “Identification of Plasmodium dipeptidyl aminopeptidase allosteric inhibitors by high throughput screening” (PLoS ONE, 2019).
# Where “and” joins values, the source holds several entries; their conditions need not be identical. Equal values may be shown once. Hit rate of the full screen: of about 110,000 compounds, about 230 (0.21%) showed an effect of 50% or more. The list shows a part of the results.
# Molecular target: DPAP1 (Plasmodium falciparum, UniProt Q8IIJ9)
# Experiment: primary screen, percent inhibition; read by cleavage of a fluorogenic dipeptide substrate; higher = more effect of the substance
# Set-up: species or system P. falciparum D10 trophozoite lysates; single well
# 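Further: 30 min substrate incubation versus DMSO and 10 µM JCP410 controls.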
# DPAP1, sequence (Q8IIJ9 whole entry, looked up): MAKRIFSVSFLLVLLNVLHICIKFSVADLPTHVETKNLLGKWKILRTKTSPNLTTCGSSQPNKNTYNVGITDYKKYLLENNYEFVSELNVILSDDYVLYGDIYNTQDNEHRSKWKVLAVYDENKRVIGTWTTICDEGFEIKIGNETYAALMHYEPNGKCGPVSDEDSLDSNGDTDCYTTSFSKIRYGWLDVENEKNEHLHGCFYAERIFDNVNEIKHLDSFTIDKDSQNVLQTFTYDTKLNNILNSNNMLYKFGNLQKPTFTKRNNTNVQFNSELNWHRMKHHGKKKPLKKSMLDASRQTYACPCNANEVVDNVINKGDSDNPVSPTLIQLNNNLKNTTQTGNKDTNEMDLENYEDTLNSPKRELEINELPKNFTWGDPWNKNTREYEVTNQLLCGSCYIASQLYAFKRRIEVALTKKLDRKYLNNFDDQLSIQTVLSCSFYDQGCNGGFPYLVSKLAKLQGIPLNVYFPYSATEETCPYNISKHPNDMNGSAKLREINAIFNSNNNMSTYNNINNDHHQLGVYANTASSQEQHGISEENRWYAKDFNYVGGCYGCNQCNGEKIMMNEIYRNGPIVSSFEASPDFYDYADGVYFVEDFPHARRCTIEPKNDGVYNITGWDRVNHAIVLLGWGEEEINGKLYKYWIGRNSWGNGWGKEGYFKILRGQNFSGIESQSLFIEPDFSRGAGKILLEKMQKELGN
row,Structure (SMILES),% Inhibition @ 10 uM
1,Cc1oc(-c2ccc3c(c2)OCCO3)cc1C(=O)NCC(=O)O,-1.69%
2,O=c1c(OCc2ccccc2)c(-c2ccco2)oc2ccc(Cl)cc12,-1.65%
3,COc1ccc(-c2nc(CS(=O)(=O)CC(=O)NCCc3ccc(Cl)cc3)c(C)o2)cc1,-1.89%
4,CN1CCC(NC(c2ccccc2)c2ccccc2)CC1,-1.82%
5,COC(=O)CCC(=O)Nc1c(C)cc(C)cc1C,-3.58%
6,COC(=O)c1sccc1NC(=O)Cn1ncc2c(=O)oc3ccc(C)cc3c21,4.55%
7,N#CCNC(=O)[C@H](CC1CCCCC1)NC(=O)Cc1ccc(OCc2ccccc2)cc1,-6.98%
8,O=P(CCO)(c1ccccc1)c1ccccc1,-1.59%
9,CCN(CC)c1ccc(NC(=O)c2c(-c3ccccc3)noc2C)cc1,-3.24%
10,CNC(=O)/C(=C\c1ccc(-c2ccc(Br)cc2)o1)NC(=O)c1ccccc1,-4.75%
11,Cc1nc(O)nc(O)c1C1N2CC3(C)CN1CC(C)(C2)C3=O (stereo not drawn),2.05%
12,CCn1cc(/C=C(\NC(=O)c2ccccc2OC)C(=O)NCCCO)c2ccccc21,-1.74%
13,CC1(C)CC2(CCO1)OC(=O)CC2C(=O)NCCc1ccccc1 (stereo not drawn),3.59%
14,Cn1c(=O)c2c(nc3n2CC(c2ccccc2)=NN3)n(C)c1=O,1.13%
15,CCc1nc2c(cnn2-c2ccccc2)c(=O)n1-c1ccc(C)cc1,-10.9%
16,O=c1[nH]c(=O)n([C@H]2C[C@H](O)[C@@H](CO)O2)cc1Br,-1.52%
17,Cc1ccc(CS(=O)(=O)Cc2ccc(C(=O)N3CCC4(CC3)OCCO4)o2)cc1,-1.21%
18,COc1cc(OC)c(OC)cc1CN1CCN(Cc2cccc(Br)c2)CC1,-2.3%
19,CC1=C(C(=O)Nc2ccc(Cl)cc2)C(c2ccc(Cl)cc2)NC(S)=N1 (stereo not drawn),3.42%
20,Cc1cc(C)nc(N2N=C(CSc3ccc(Cl)cc3)CC2=O)n1,2.31%
21,COc1ccccc1NC1=C(Cl)C(=O)N(c2ccccc2C)C1=O,-4.6%
22,CCOc1ccccc1C(=O)Nc1nc(-c2ccc(F)cc2F)cs1,-0.132%
23,COc1cc(Cl)c(C)cc1NC(=O)Nc1ccc(Cl)cc1,-9.29%
24,CN(Cc1ccccc1)C(=O)COc1cc(Cl)ccc1Cl,-0.7%
25,COc1ccc(Cn2c(C(=O)O)c(CNCc3ccccc3F)c3ccc(C)cc32)cc1,-5.04%

row,Structure (SMILES),% Inhibition @ 10 uM
1,O=C(C1=C(O)C(=O)N(c2ccccc2)C1c1ccccc1)c1cccs1 (stereo not drawn),-6.92%
2,COc1ccc(NC(=O)C2CCCN2S(=O)(=O)c2ccc(Cl)cc2)cc1 (stereo not drawn),4.09%
3,Cc1cccc(CNC(=O)CCC(=O)N2Cc3ccccc3Oc3ncccc32)c1,-5.28%
4,CCNC(=O)CCc1nc(-c2ccccc2Cl)no1,-1.35%
5,CCC[C@H](NC(=O)C1(NC(=O)c2ccc(OC(F)(F)F)cc2)CCCCC1)C(=O)c1nnc(-c2cccc(C(F)(F)F)c2)o1,-10.1%
6,O=C1CCCC(O)=C1C(C1=C(O)CCCC1=O)c1ccc2c(c1)OCO2,0.708%
7,N=C1/C(=C\c2cccc3ccccc23)C(=O)N=C2SC(N3CCCC3)=NN12,-1.66%
8,CCn1cc(CNC(=O)Nc2cccc(C)c2)c(C)n1,-2.74% and 1.4%
9,COc1ccc(CCNC(=O)Cn2cnc3onc(-c4ccc(Cl)cc4)c3c2=O)cc1OC,8.12%
10,O=C1CSc2ccc(C(=O)O)cc2N1,0.392%
11,CCOCCCNC(=O)c1nnc(Cc2cc(OC)c(OC)c(OC)c2)o1,2.5%
12,C=CCOC(=O)C1=C(C)NC(=O)NC1c1cccc(Cl)c1 (stereo not drawn),5.01%
13,CC1=C(C(=O)N2CCOCC2)C(c2ccccc2F)C2=C(O)CC(C)(C)CC2=N1 (stereo not drawn),3.45%
14,O=C1/C(=C/c2ccccc2F)SC(=S)N1C1CCS(=O)(=O)C1 (stereo not drawn),0.135%
15,O=S(=O)(NC1CCc2ccccc21)c1ccc(-n2cnnn2)cc1 (stereo not drawn),-1.07%
16,O=C1CCCN1CCCNc1ncnc2c1cnn2-c1ccc(Cl)cc1,1.09%
17,O=C(NCc1ccccn1)C1CC1c1ccccc1 (stereo not drawn),-1.04%
18,Cc1nc2c(-c3cccc4ccccc34)c(C)nn2c(O)c1Cl,0.789%
19,C=CCn1c(SCC(=O)N2CCCc3ccccc32)nc2sc(C)cc2c1=O,5.54%
20,Cc1ccccc1-c1nc(CSCC(=O)NCc2cccs2)c(C)o1,-4.71%
21,COc1ccccc1-c1nnc(C2CCN(S(=O)(=O)c3c(F)c(F)c(F)c(F)c3F)CC2)o1,11.3%
22,C(=C\c1nc2sc(/C=C/c3ccccc3)nc2s1)/c1ccccc1,-0.268%
23,CCn1c(C(=O)O)c(CNCCc2cc(OC)ccc2OC)c2ccc(C)cc21,6.66%
24,CCOC(=O)N1CCN(c2nc(C)cc(C(F)(F)F)n2)CC1,-9.05%
25,O=C(NCc1cccc(CNC(=O)c2cccc(F)c2)c1)c1cccc(F)c1,0.389%

row,Structure (SMILES),% Inhibition @ 10 uM
1,COc1cc(C(CC(=O)NC(C)C)N2Cc3ccccc3C2=O)cc(OC)c1OC (stereo not drawn),-3.29%
2,CC1=C(C)CC(CN2C(=O)CCCC2=O)CC1 (stereo not drawn),-4.31%
3,CCCCOc1ccc(OCCNC(=O)c2ccco2)cc1,0.503%
4,CCC(Sc1nc2c(cc1C#N)CCCCC2)C(=O)Nc1cc(C)on1 (stereo not drawn),0.275%
5,CNC(=O)c1ccc(CNS(=O)(=O)c2ccc(C)cc2)cc1,0.718%
6,CCOC(=O)c1c2c(n3ccccc13)C(=O)c1ccccc1C2=O,12%
7,CC(C)(C)c1ccc(C(=O)NC2(C(F)(F)F)NC(=O)N(Cc3ccccc3)C2=O)cc1 (stereo not drawn),1.91%
8,Cc1ccc(S(=O)(=O)N(C)Cc2nc(-c3cccc(C)c3)no2)cc1,0.907%
9,O=C(NCC1COc2ccccc2O1)c1ccc(Cl)cc1 (stereo not drawn),-1.38%
10,CCOc1ccc2nc(NC(=O)Cn3cc(S(=O)(=O)NC)c(S(=O)(=O)NC)c3)sc2c1,5.36%
11,O=C1c2ccccc2C(=O)N1CCCON1C(=O)c2ccccc2C1=O,-0.941%
12,Cc1cc(-c2ccc(S(=O)(=O)NCc3ccc(F)cc3)cc2)on1,5.87%
13,CC1(C)CC(=O)C2=C(C1)c1c(ccc3ccccc13)NC2c1cc2c(cc1Br)OCO2 (stereo not drawn),1.29%
14,CCCN(CCO)Cc1cccc(Cl)c1,-6%
15,Cc1ccc(C2NC(=S)NC(c3ccc(C)cc3)C23C(=O)NC(=O)NC3=O)cc1 (stereo not drawn),-1.29%
16,COCCNC(=O)c1ccc2c(c1)nc(C)n2-c1cccc(C)c1,3.04%
17,N#CCC(=O)NCC1OCCc2ccccc21 (stereo not drawn),-0.736%
18,COc1cccc(C(=O)N2CCN(c3ncccn3)CC2)c1,3.94%
19,CC1=[N+]([O-])C2(CCCCC2)[N+]([O-])=C1c1ccccc1,1.63%
20,OCC1CCCCN1Cc1ccc(F)c(Br)c1 (stereo not drawn),-5.11%
21,CCN(CC)C(=O)C1CCCN(Cc2c(Cl)cccc2Cl)C1 (stereo not drawn),-1.41%
22,Cc1ccc(S(=O)(=O)N(CC(=O)N(C)C)c2ccc(Br)cc2)cc1,0.793%
23,Cc1c(Cl)cccc1-n1cnc(=O)c2ccccc21,-3.33%
24,Cc1cccc(C)c1NC(=O)CN1CCCCC1,1.7%
25,COc1ccc(-c2noc(CNC(=O)C(c3ccccc3)c3ccccc3)n2)cc1,-1.22%

row,Structure (SMILES),% Inhibition @ 10 uM
1,COc1cc(CN2COc3cc(C)c4c(oc(=O)c5ccccc54)c3C2)cc(OC)c1OC,4.13%
2,CCC[C@H](NC(=O)C1(NC(=O)c2ccc(OC(F)(F)F)cc2)CCCCC1)C(=O)c1nnc(CC)o1,-4.72%
3,O=C(NCc1cccnc1)c1ccccc1Cl,-0.872%
4,COc1cc(C2C(C#N)=C(N)OC3=C2C(=O)CC(C)(C)C3)ccc1OCc1ccccc1Cl (stereo not drawn),5.58%
5,CCN1CCCC1CNC(=O)C1c2ccccc2C(=O)N(CCOC)C1c1ccc(F)cc1 (stereo not drawn),1.96%
6,CCOC(=O)CC1(c2ccc(F)cc2)C(=O)c2ccccc2C1=O,-6.06%
7,O=C(O)c1ccc(S(=O)(=O)N2CCCCCCC2)cc1,-4.07%
8,CCOC(=O)C1=C(c2ccccc2)Nc2nnnn2C1c1ccc(OC)cc1 (stereo not drawn),2.17%
9,CCOc1ccc2nc(N3CCC(C(=O)NCCCN4CCc5ccccc5C4)CC3)sc2c1,1.8%
10,Cc1ccc(OCCSc2nc(-c3ccccc3)nc3cc(=O)[nH]n23)cc1Cl,10.2%
11,CCOc1cc(/C=C(\C#N)c2nn(-c3ccccc3)c(NC(C)=O)c2C#N)ccc1OC,8.01%
12,COc1ccc(OC)c(NS(=O)(=O)c2ccccc2)c1,0.983%
13,Cc1c(Cl)cccc1NC(=O)c1cccc(N2C(=O)C3C4C=CC(C4)C3C2=O)c1 (stereo not drawn),-1.27%
14,Cc1nc2sc(C(N)=O)c(N)c2c(C)c1CC(=O)c1ccccc1,5.39%
15,CCCCN1C(=O)N(C)C2NC(=S)NC21 (stereo not drawn),-0.339%
16,CC(C)(C)CC(=O)N1CCN(c2ccc(Cl)cc2)CC1,-7.34%
17,COc1cc(CCC(=O)Nc2cc(C)[nH]n2)cc(OC)c1OC,3.47%
18,COc1cccc(OC)c1C(=O)NCc1ccc(C)cc1,-1.54%
19,Clc1cccc(CSc2ncc3ccccn23)c1,2.9%
20,Cc1ccc(NC(=O)CSCC(=O)NC2CCCCC2)cc1,-2.19%
21,COc1ccccc1C(=O)N1CCN(C2=NS(=O)(=O)c3ccccc32)CC1,-1.4%
22,COc1cc2nc(NCCCN3CCCCC3)n3nc(-c4ccccc4)nc3c2cc1OC,-2.42%
23,Cc1ccc(-c2nc(CS(=O)(=O)CC(=O)NCCCc3ccccc3)c(C)o2)cc1,-0.138%
24,COc1cccc(-c2cn3c4c(=O)n(C)c(=O)n(C)c4nc3n2-c2ccc3c(c2)OCCO3)c1,-11.1%
